Source: PMC4336329 (PLoS ONE, 2015)
Out of some 310,000 compounds screened, about 2,200 (0.71%) showed an effect of 50% or more. Effects have a minus sign here. Some of the results follow.

target: human ether-à-go-go-related gene (hERG) potassium channel (human, UniProt Q12809); assay: primary screen, population patch clamp on CHO cells stably expressing hERG
Sequence (Q12809 whole entry, looked up): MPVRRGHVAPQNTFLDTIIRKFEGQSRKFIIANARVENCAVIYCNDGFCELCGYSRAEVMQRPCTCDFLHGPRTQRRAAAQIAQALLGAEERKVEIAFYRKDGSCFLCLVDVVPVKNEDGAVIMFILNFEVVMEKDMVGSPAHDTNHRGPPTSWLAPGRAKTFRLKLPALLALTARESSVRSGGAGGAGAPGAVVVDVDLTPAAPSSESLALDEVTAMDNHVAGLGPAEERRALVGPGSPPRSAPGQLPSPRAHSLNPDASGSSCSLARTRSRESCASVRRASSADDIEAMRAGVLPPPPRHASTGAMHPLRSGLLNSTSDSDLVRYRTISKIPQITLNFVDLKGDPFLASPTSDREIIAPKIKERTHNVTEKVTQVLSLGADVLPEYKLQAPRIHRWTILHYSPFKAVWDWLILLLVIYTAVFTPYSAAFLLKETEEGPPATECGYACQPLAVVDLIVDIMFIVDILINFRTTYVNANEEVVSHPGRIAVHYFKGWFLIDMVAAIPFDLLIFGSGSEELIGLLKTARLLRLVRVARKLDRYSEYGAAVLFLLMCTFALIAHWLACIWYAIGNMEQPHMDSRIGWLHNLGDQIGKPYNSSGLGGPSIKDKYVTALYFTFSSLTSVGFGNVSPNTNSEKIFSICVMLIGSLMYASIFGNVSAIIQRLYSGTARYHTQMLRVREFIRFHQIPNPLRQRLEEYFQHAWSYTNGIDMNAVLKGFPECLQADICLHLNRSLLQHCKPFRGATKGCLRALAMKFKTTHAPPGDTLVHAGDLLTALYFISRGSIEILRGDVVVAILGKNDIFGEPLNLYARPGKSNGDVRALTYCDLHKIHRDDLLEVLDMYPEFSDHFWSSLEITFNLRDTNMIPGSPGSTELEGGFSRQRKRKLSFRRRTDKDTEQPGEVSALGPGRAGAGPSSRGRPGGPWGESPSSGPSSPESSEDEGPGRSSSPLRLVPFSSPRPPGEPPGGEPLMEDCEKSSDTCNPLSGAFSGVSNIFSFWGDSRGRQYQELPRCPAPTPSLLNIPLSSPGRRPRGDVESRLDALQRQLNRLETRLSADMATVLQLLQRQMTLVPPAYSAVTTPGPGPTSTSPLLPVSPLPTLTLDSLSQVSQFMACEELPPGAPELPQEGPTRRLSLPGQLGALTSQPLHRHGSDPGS

First: Cc1cc(C)c2c(N)c(S(=O)(=O)c3ccccc3)sc2n1
Second: Cc1sc2nc(SCC(=O)Nc3c(C)n(C)n(-c4ccccc4)c3=O)n(C)c(=O)c2c1C
The “hERG current change (%, negative = inhibition) at 1uM” value of the first is lower: 7.06% for the first, 10.3% for the second.

Going from N#Cc1ccsc1NC(=O)CSc1ncnc2ccccc12 to N#Cc1ccccc1NC(=O)COC(=O)c1ccc2c(c1)OCO2, the “hERG current change (%, negative = inhibition) at 1uM” value rises from 9.17% to 14.1%.

First: Cc1cc(/C=N/Nc2ccc([N+](=O)[O-])cn2)c(C)n1-c1ccc(C(=O)O)cc1
Second: Cc1cc2cc(CNC(=O)Cc3ccc([N+](=O)[O-])cc3)ccc2[nH]1
The “hERG current change (%, negative = inhibition) at 1uM” value of the first is higher: 13.3% for the first, -1.9% for the second.

Compared with CN(Cc1ccccc1)C(=O)CCn1c(=O)c2cccn2c2cccnc21, NC(=O)c1nn(Cc2ccccc2)c(=O)c2ccccc12 is higher in “hERG current change (%, negative = inhibition) at 1uM” value: 4.49% for the first, 11.7% for the second.

First: COc1ccc(-c2nnc(Sc3nc4ccccc4o3)c3ccccc23)cc1
Second: Cc1ccc(OCC(=O)N2CCN(c3nnc(-c4ccc(C)cc4)c4ccccc34)CC2)cc1
The “hERG current change (%, negative = inhibition) at 1uM” value of the first is higher: 1.11% for the first, -8.43% for the second.

First: Cc1ccc(/C=N/NC(=O)CSCc2ccc(Cl)cc2)cc1
Second: CCN(CC(=O)NCc1ccc(Cl)cc1)C(=O)CSc1ccccc1
The “hERG current change (%, negative = inhibition) at 1uM” value of the first is higher: 13.6% for the first, -22.5% for the second.

Going from O=C(Cn1cc(C(=O)c2ccccc2)c2ccccc21)NCc1ccco1 to O=C(CCCCCNC(=O)c1ccccc1)N/N=C/c1ccccc1O, the “hERG current change (%, negative = inhibition) at 1uM” value rises from 1.85% to 12.1%.

Compared with O=C(NCCc1ccccc1)C1CCC(Cn2c(=O)c3ccccc3n(Cc3cccc(F)c3)c2=O)CC1 (centres unmarked), NS(=O)(=O)c1ccc(CCNC(=O)CN2CCC(Cc3ccccc3)CC2)cc1 is lower in “hERG current change (%, negative = inhibition) at 1uM” value: 13.6% for the first, -1.53% for the second.

Going from COc1ccc(CCNC(=O)COC(=O)CCC(=O)c2ccc(F)cc2)cc1OC to COc1ccc(N(CC(=O)NC2CCCCCC2)S(=O)(=O)c2ccc(C)cc2)cc1OC, the “hERG current change (%, negative = inhibition) at 1uM” value rises from 9.83% to 12.3%.

First: COc1ccccc1NC(=O)Nc1nc(CC(=O)N2CCN(c3ccccc3)CC2)cs1
Second: COc1ccccc1N1CCN(C(=O)/C=C/c2ccccc2)CC1
The “hERG current change (%, negative = inhibition) at 1uM” value of the first is higher: 7.19% for the first, -3.71% for the second.

First: COC(=O)c1ccc(N2C(=O)CC(SCCN)C2=O)cc1 (centres unmarked)
Second: O.O=C(OCC1OC2C(Oc3nc(=O)ccn32)C1O)c1ccccc1 (centres unmarked)
The “hERG current change (%, negative = inhibition) at 1uM” value of the first is lower: 3.93% for the first, 5.53% for the second.

First: O=C1COc2ccc(C(=O)COC(=O)c3ncc(Cl)c(Cl)c3Cl)cc2N1
Second: N/C(=N\OC(=O)c1ccc2c(c1)OCO2)c1cccc([N+](=O)[O-])c1
The “hERG current change (%, negative = inhibition) at 1uM” value of the first is higher: 12.8% for the first, 12.7% for the second.

First: Cc1noc(C)c1CSCC(=O)Nc1cc(S(C)(=O)=O)ccc1Cl
Second: Cc1ccc(S(=O)(=O)N2Cc3ccccc3CC2C(=O)Nc2cc(C)on2)cc1 (centres unmarked)
The “hERG current change (%, negative = inhibition) at 1uM” value of the first is higher: 12.8% for the first, 5.58% for the second.

Compared with O=C(COC(=O)c1cc[n+]([O-])cc1)Nc1ccccc1Cl, O=C(NNC(=O)c1cc([N+](=O)[O-])ccc1Cl)c1cccnc1 is higher in “hERG current change (%, negative = inhibition) at 1uM” value: 4.57% for the first, 18.2% for the second.

Compared with CN(CCC1CCOCC1)C(=O)c1cc(COc2c(F)cccc2F)on1, Cc1onc(-c2c(Cl)cccc2Cl)c1C(=O)NC(=S)N1CCOCC1 is higher in “hERG current change (%, negative = inhibition) at 1uM” value: -1.87% for the first, 14% for the second.

Going from COc1cc(OC)c(NC(=O)CCCn2c(=O)oc3ccccc32)cc1Cl to COc1cc2nc(NC(=O)c3ccccc3)[nH]c(=O)c2cc1OC, the “hERG current change (%, negative = inhibition) at 1uM” value falls from 14% to 10.9%.

Compared with COc1cccc(/C=N/n2c(-c3ccco3)nc3ccccc3c2=O)c1, CC(C)N1C(=O)/C(=C\c2nc3ccccc3c(=O)[nH]2)c2ccccc21 is higher in “hERG current change (%, negative = inhibition) at 1uM” value: 0.572% for the first, 10% for the second.

Compared with Cc1ccc(C(=O)NC(=S)NNC(=O)c2ccc([N+](=O)[O-])cc2)cc1, CC(=O)Nc1ccc(S(=O)(=O)Nc2ccc(C)c([N+](=O)[O-])c2)cc1 is lower in “hERG current change (%, negative = inhibition) at 1uM” value: 9.14% for the first, -4.1% for the second.

Compared with CC(=O)Nc1c(Br)cc(N2C(=O)CCC2=O)cc1Br, COc1cc2c(cc1OC)C1(C)N(CC2)C(C(C)=O)=NN1c1ccc(Cl)cc1 (centres unmarked) is higher in “hERG current change (%, negative = inhibition) at 1uM” value: 7.86% for the first, 11.6% for the second.

Going from N#CCOc1coc(CN2CCN(c3cccc(Cl)c3)CC2)cc1=O to CCc1ccc(OCC(=O)N2CCN(Cc3ccc4c(c3)OCO4)CC2)cc1, the “hERG current change (%, negative = inhibition) at 1uM” value falls from 14.6% to 7.15%.

Compared with CC(O/N=C\c1ccccc1O)C(=O)Nc1ccccc1C(=O)N1CCOCC1 (centres unmarked), CCc1ccccc1NC(=O)CN1CCN(C(=O)CCC(=O)N2CCC(c3ccccc3)=N2)CC1 is lower in “hERG current change (%, negative = inhibition) at 1uM” value: 15.5% for the first, -13.1% for the second.

First: CC(C(=O)NCC1CCCO1)n1cccc1C(=O)c1ccccc1 (centres unmarked)
Second: CCC(=O)Nc1ccc(S(=O)(=O)NCC2CCCO2)cc1 (centres unmarked)
The “hERG current change (%, negative = inhibition) at 1uM” value of the first is higher: 13.1% for the first, 7.79% for the second.

First: COC(=O)C1=C(O)/C(=C\c2ccc(CNS(=O)(=O)c3ccc(Cl)cc3)o2)N=C1C
Second: COC(=O)c1cc(NS(=O)(=O)c2ccc(NC(C)=O)cc2)ccc1Cl
The “hERG current change (%, negative = inhibition) at 1uM” value of the first is higher: 14.2% for the first, 13.1% for the second.

First: CC1(C)CC(=O)C2=C(C1)N(Cc1ccccc1)C(=O)C2(O)C(F)(F)F (centres unmarked)
Second: CC(C)(C)OC(=O)N1CCC(CNC(=O)Nc2ccccc2)CC1
The “hERG current change (%, negative = inhibition) at 1uM” value of the first is lower: 4.92% for the first, 13.7% for the second.

Compared with Cc1nc(Sc2ccc(Br)cc2)c(C#N)c(C)c1[N+](=O)[O-], Cc1ccc2nc(SCC(=O)Nc3ccc4c(c3)OCCO4)[nH]c2c1 is lower in “hERG current change (%, negative = inhibition) at 1uM” value: 19.8% for the first, 9.56% for the second.

First: Cc1ccc(-n2nc3c(=O)n(CCCC(=O)NCc4cccc(F)c4)nc(C)c3c2C)cc1
Second: C=CCOc1c2ccc(C(=O)NCc3ccc(C)cc3)cc2nn1C
The “hERG current change (%, negative = inhibition) at 1uM” value of the first is lower: 7.09% for the first, 12.8% for the second.

First: O=C(O)c1cc(NC(=O)C2CCCO2)cc(C(=O)O)c1 (centres unmarked)
Second: CCN(CC)S(=O)(=O)c1ccc(N2CCOCC2)c(NC(=O)C2CCCO2)c1 (centres unmarked)
The “hERG current change (%, negative = inhibition) at 1uM” value of the first is higher: 23.3% for the first, 7.25% for the second.

Going from COc1ccc([C@H]2CC(=O)C=C(c3ccc4c5c(cccc35)CC4)C2)cc1 to COc1ccc(S(=O)(=O)CCC(=O)Nc2c(C)n(C)n(-c3ccccc3)c2=O)cc1, the “hERG current change (%, negative = inhibition) at 1uM” value falls from 16.6% to 3.34%.

First: CC(NC(=O)Cc1ccccc1)C1COc2ccccc2O1 (centres unmarked)
Second: C=CCC(C(=O)NC(C)c1ccccc1)C(=O)NC(C)c1ccccc1 (centres unmarked)
The “hERG current change (%, negative = inhibition) at 1uM” value of the first is higher: 4.69% for the first, -0.302% for the second.

Going from CCOc1ccc(-c2nnc(SCC(=O)N3CCN(c4ccccc4)CC3)o2)cc1 to CC1CCN(C(=O)CSc2ccc(-c3cccnc3)nn2)CC1, the “hERG current change (%, negative = inhibition) at 1uM” value rises from 7.47% to 14.5%.

First: CC(C)(C)C1(C)OC(C(N)=O)C(C(N)=O)O1 (centres unmarked)
Second: CCCn1c(N)c(C(=O)CSc2nnc(-c3ccoc3C)n2C)c(=O)n(C)c1=O
The “hERG current change (%, negative = inhibition) at 1uM” value of the first is higher: 10.6% for the first, 5.38% for the second.

First: CSCC[C@H](NC(=O)C1CCC(CNC(=O)[C@@H](N)Cc2ccccc2)CC1)C(=O)O.Cl (some centres unmarked)
Second: COc1ccc(NC(=O)C2CCCN2C(=O)Nc2ccccc2)cc1OC (centres unmarked)
The “hERG current change (%, negative = inhibition) at 1uM” value of the first is higher: 12.3% for the first, 11.4% for the second.

Going from Cc1ccc(S(=O)(=O)NCc2ccccc2)cc1C(=O)N(C)Cc1ccc(F)cc1 to Cc1ccccc1NS(=O)(=O)c1ccc(OCC(=O)NCc2ccccn2)cc1, the “hERG current change (%, negative = inhibition) at 1uM” value rises from -0.769% to 3.12%.

Going from Cc1ccc(/C=C/C(=O)Nc2cccc(S(=O)(=O)N3CCOCC3)c2)o1 to CN(Cc1cnn(Cc2ccccc2)c1)C(=O)c1cccc(S(=O)(=O)N2CCOCC2)c1, the “hERG current change (%, negative = inhibition) at 1uM” value rises from 2.3% to 15.8%.

Going from CCOc1cc2[nH]c(=S)n(CCCN3CCOCC3)c(=O)c2cc1OCC to CCCCn1c(O)c(C=NCc2ccc3c(c2)OCO3)c(=O)[nH]c1=O, the “hERG current change (%, negative = inhibition) at 1uM” value rises from -2.09% to 7.43%.

First: N#Cc1nc(N2CCCC2)nc(N2CCCC2)n1
Second: O=S(=O)(c1ccc2[nH]ccc2c1)N1CCCCCC1
The “hERG current change (%, negative = inhibition) at 1uM” value of the first is lower: -2.63% for the first, 15.1% for the second.

First: CNS(=O)(=O)/C=C/c1ccccc1
Second: CN(c1ccccc1)S(=O)(=O)c1cccc(NC(=O)c2ccc3ncsc3c2)c1
The “hERG current change (%, negative = inhibition) at 1uM” value of the first is lower: 7.05% for the first, 10.9% for the second.

First: O=C(CN1CCN(Cc2ccc(F)cc2)CC1)Nc1nc2ccccc2s1
Second: O=C(OCc1ccc(Br)cc1)c1cccc(S(=O)(=O)N2CCCC2)c1
The “hERG current change (%, negative = inhibition) at 1uM” value of the first is lower: -54% for the first, 8.56% for the second.

First: COc1ccc(/C=C2\C(=N)N3N=C(CC(=O)N4CCCCC4)SC3=NC2=O)cc1
Second: COc1ccc(-c2nnc(NC(=O)c3ccc(S(=O)(=O)N(C)CC4CCCO4)cc3)o2)c(OC)c1 (centres unmarked)
The “hERG current change (%, negative = inhibition) at 1uM” value of the first is lower: 1.73% for the first, 15.8% for the second.

Going from O=C(Nc1ccc(O)c2c(=O)cc(-c3ccccc3Cl)oc12)c1cccs1 to CC(=O)N1CCc2cc(S(=O)(=O)N3CCc4ccccc43)ccc21, the “hERG current change (%, negative = inhibition) at 1uM” value falls from 5.25% to -9.95%.

Going from Cn1nc(C(F)(F)F)c(/C=N/OCc2c(Cl)cccc2Cl)c1Cl to Cn1c(SCC(=O)NC2CCCC2)nnc1C(F)(F)F, the “hERG current change (%, negative = inhibition) at 1uM” value rises from 8.36% to 8.54%.

Compared with CCCCC/C=C\C/C=C\C/C=C\CCCCC(=O)O, COCCn1c(CCC(=O)O)nc2c1c(=O)[nH]c(=O)n2CC(C)C is higher in “hERG current change (%, negative = inhibition) at 1uM” value: 5.17% for the first, 13.9% for the second.

Compared with Cc1ccc(/C=C/C(=O)N2CC(C)CC(C)C2)o1 (centres unmarked), Cc1ccccc1CSc1nccn1-c1ccccc1 is lower in “hERG current change (%, negative = inhibition) at 1uM” value: 6.28% for the first, -0.649% for the second.
